Over roughly 3,600 compounds, “viability index relative to DMSO control” has its median near 0.81; the lowest 2% begin near 0.13. This is one part of the list.
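Note: 384-well serum-free SaLSSA: MitoTracker Red CMXRos staining with saponin lysis, high-content imaging, treated-well particle count divided by plate-mean count of DMSO wells.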

In this experiment the test system is Plasmodium falciparum NF54 stage V gametocytes. As to the kind of experiment: viability index relative to DMSO control (fraction); higher = less gametocyte killing. The conditions noted are these: 1.25 µM, incubation time: 72 h.
`CCOc1ccc(CCNC(=O)Nc2ccc(F)cc2)cc1OCC` showed a viability index of 0.726. As to `CC(=O)c1ccc(NC(=O)CN(C)S(=O)(=O)c2ccc3[nH]c4c(c3c2)CCCC4)cc1`, the viability index was determined as 0.867. Then `CN(CCCNc1ccnc2cc(Cl)ccc12)C(=O)COc1ccc(Cl)cc1`, with 0.595.

`Cn1nc(C(=O)NCc2ccccc2)c2c1CCN(Cc1cccc(O)c1)C2` had a viability index of 1.27. As to `COc1ccc(NC(=O)C2=C(C)NC(=S)NC2c2ccc(O)cc2)cc1` (stereo not given), the viability index was determined as 0.878.

Regarding `CCOC(=O)C1=C(C)NC2=C(C(=O)CC(c3ccc(OC)c(OC)c3)C2)C1c1ccccc1C` (stereo not given), the viability index is 0.463. For `Cc1[nH]c2ccccc2c(=O)c1Br`, the viability index amounted to 0.596. In turn, `COc1cc(OC)c(NC(=O)C2c3ccccc3C(=O)N(C)C2c2cccs2)cc1Cl` (stereo not given) returned a viability index of 0.546. For `CCOC(=O)c1cnc2ccc(Cl)cc2c1Nc1ccc(OC)c(OC)c1` the value was 0.977. `Cn1c(=O)[nH]c(=O)c2c1nc(N1CCCCCC1)n2CC(O)COc1ccc([N+](=O)[O-])cc1` (stereo not given) gave a viability index of 0.942. As to `CCCSCCCNC(=O)c1oc2c(c1C)-c1[nH]ncc1CC2`, the viability index turned out to be 0.714. For `Cc1ccc(-n2nnnc2SCc2nc(-c3cccc([N+](=O)[O-])c3)no2)c(C)c1` the value was 0.78. With `COc1ccc2[nH]c3c(NCCN4CCCCC4)ncnc3c2c1`, the viability index came out at 1.04. Then `S=C(NN=Cc1ccccn1)NC1CC2CC1C1C=CCC21` (stereo not given), with 0.397; and `O=C(CN1CCCC1)Nc1ccc(Cc2ccc(NC(=O)CN3CCCC3)cc2)cc1`, with 0.914. With `Clc1ccc(C2Nc3ccc4ccccc4c3C3C=CCC32)c(Cl)c1` (stereo not given), the viability index was determined as 0.913. For `O=C(NNC(=O)c1csnn1)c1ccc(C(F)(F)F)cc1`, the viability index was determined as 0.815. `CCN1CCN(c2cc(C)c3cc(NC(=O)c4cccc([N+](=O)[O-])c4)ccc3n2)CC1` gave a viability index of 0.859. Consider `CC1=C(C(=O)Nc2ccc(C)cc2C)C(c2ccc([N+](=O)[O-])cc2)n2ncc(C(=O)Nc3ccc(F)cc3)c2N1` (stereo not given), for which the viability index was 0.639.

Consider `CCC(C)(C)n1nnnc1C(c1cc2cc(C)cc(C)c2[nH]c1=O)N1CCN(c2ccc(O)cc2)CC1` (stereo not given), for which the viability index came out at 0.771. In turn, `COc1cccc(CN2CCN(C(c3ccccc3)c3ccccc3)CC2)c1O` had a viability index of 0.718. The molecule `CCOC(=O)c1ccc(N2CCN(c3cc(C)ccc3C)CC2)c(NC(=O)Nc2ccc(Cl)cc2)c1` gave a viability index of 0.826. For `O=C(Nc1ccc(Oc2ccc(OC(F)(F)F)cc2)cc1)C1CC1`, the viability index is 0.693. For `CCc1ccc2c(c1)c1nnc(SCC(=O)NCCOC)nc1n2C`, the viability index was 0.841.

As for `Oc1c2c(nc3cc(-c4ccc(Br)cc4)nn13)CCCC2`, the viability index was 0.677.

Values taken from the supplement of paper PMC4723716.
